Assay results from a collection of fitness landscapes (doi:10.1126/science.1257360).
Some of the results follow.

B1: PhoQ; a variant is named by its letters at X, in order, P23837 (parent)
chain: MKKLLRLFFPLSLRVRFLLATAAVVLVLSLAYGMVALIGYSVSFDKTTFRLLRGESNLFYTLAKWENNKLHVELPENIDKQSPTMTLIYDENGQLLWAQRDVPWLMKMIQPDWLKSNGFHEIEADVNDTSLLLSGDHSIQQQLQEVREDDDDAEMTHSVAVNVYPATSRMPKLTIVVVDTIPVELKSSYMVWSWFIYVLSANLLLVIPLLWVAAWWSLRPIEALAKEVRELEEHNRELLNPATTRELTSLVRNLNRLLKSERERYDKYRTTLTDLTHSLKTPLXXLQXXLRSLRSEKMSVSDAEPVMLEQISRISQQIGYYLHRASMRGGTLLSRELHPVAPLLDNLTSALNKVYQRKGVNISLDISPEISFVGEQNDFVEVMGNVLDNACKYCLEFVEISARQTDEHLYIVVEDDGPGIPLSKREVIFDRGQRVDTLRPGQGVGLAVAREITEQYEGKIVAGESMLGGARMEVIFGRQHSAPKDE

Variants of: B1
Experiment: enrichment ratio after two sorts for PhoP signalling (ratio (wild type AVST 3.29)); higher = more functional
Conditions: with PhoP (E. coli)

Variant | enrichment ratio
MNWC | 11.8
RFRM | ≤ 0.25
YMKE | ≤ 0.25
IHDY | ≤ 0.25
YLLD | ≤ 0.25
INYP | ≤ 0.25
VDRF | ≤ 0.25
FAFW | ≤ 0.25
YLCT | 1.05
PMLS | ≤ 0.25
KHVD | ≤ 0.25
VRNT | ≤ 0.25
AYAM | 0.252
RYPG | ≤ 0.25
KSHC | ≤ 0.25
PNVP | ≤ 0.25
HTLA | ≤ 0.25
YNKG | ≤ 0.25
SVSW | 4.86
WMWW | ≤ 0.25
TDSN | 4.25
RKRP | ≤ 0.25
MNNL | 0.29
FART | ≤ 0.25

Variant | enrichment ratio
IDSI | ≤ 0.25
MTSP | ≤ 0.25
ELLH | ≤ 0.25
FQNQ | ≤ 0.25
KSIW | ≤ 0.25
ERRS | ≤ 0.25
YWLI | ≤ 0.25
FRHC | ≤ 0.25
VLFQ | ≤ 0.25
MVHK | ≤ 0.25
AYYG | ≤ 0.25
EMHK | ≤ 0.25
NIQS | ≤ 0.25
YNQP | ≤ 0.25
HRLV | ≤ 0.25
FLKR | ≤ 0.25
KVCF | ≤ 0.25
PLVH | ≤ 0.25
WNQG | ≤ 0.25
SATH | 7.36
AMAG | 3.29
SFAI | ≤ 0.25
THTE | ≤ 0.25
FTVT | ≤ 0.25

Variant | enrichment ratio
IGHR | ≤ 0.25
MLHN | ≤ 0.25
NLAP | ≤ 0.25
VAKE | ≤ 0.25
EGHE | ≤ 0.25
YARW | ≤ 0.25
AFMS | ≤ 0.25
QMTL | ≤ 0.25
VPFT | ≤ 0.25
VRKW | ≤ 0.25
EDGN | ≤ 0.25
TNSC | 17.3
IRVC | ≤ 0.25
ANGG | ≤ 0.25
KKDR | ≤ 0.25
PSVF | ≤ 0.25
GMVT | ≤ 0.25
DDYV | ≤ 0.25
QLWN | ≤ 0.25
YWNT | ≤ 0.25
VGID | ≤ 0.25
QCKY | ≤ 0.25
KYAW | ≤ 0.25
LQPK | ≤ 0.25

Variant | enrichment ratio
GKAN | ≤ 0.25
RKDR | ≤ 0.25
LRQM | ≤ 0.25
NETF | ≤ 0.25
DWYS | ≤ 0.25
KPKL | ≤ 0.25
DLNK | ≤ 0.25
IWSL | ≤ 0.25
RKPL | ≤ 0.25
ATFS | ≤ 0.25
MCSE | ≤ 0.25
TVSY | 10.4
DKSM | ≤ 0.25
IQRT | ≤ 0.25
QFST | ≤ 0.25
WEKF | ≤ 0.25
NAPY | ≤ 0.25
PDRR | ≤ 0.25
LHSW | ≤ 0.25
VIVK | ≤ 0.25
MTFR | ≤ 0.25
KRTS | ≤ 0.25
VESS | 0.375
FDLF | ≤ 0.25

Variant | enrichment ratio
GKGG | ≤ 0.25
GSWF | ≤ 0.25
GFEW | ≤ 0.25
HQNE | ≤ 0.25
NTGY | ≤ 0.25
SHYT | ≤ 0.25
QPFL | ≤ 0.25
DCKD | ≤ 0.25
GLSH | ≤ 0.25
TWRQ | ≤ 0.25
LNHD | ≤ 0.25
QTHK | ≤ 0.25
EQHY | ≤ 0.25
RSFD | ≤ 0.25
PPAE | ≤ 0.25
PMKK | ≤ 0.25
AKKI | ≤ 0.25
TTVR | ≤ 0.25
NYIE | ≤ 0.25
AHNV | ≤ 0.25
PQYK | ≤ 0.25
DEVN | ≤ 0.25
AIRL | ≤ 0.25
TAQE | 1.65

Variant | enrichment ratio
KIWN | ≤ 0.25
MVMV | ≤ 0.25
VKAT | ≤ 0.25
QIEW | ≤ 0.25
QDFA | ≤ 0.25
LNVH | ≤ 0.25
FFQD | ≤ 0.25
VAQH | ≤ 0.25
YSCH | ≤ 0.25
FMHF | ≤ 0.25
YSYH | ≤ 0.25
HDKV | ≤ 0.25
PCPK | 1.24
SNMM | 10.6
WFRW | ≤ 0.25
EQSP | ≤ 0.25
HNDG | ≤ 0.25
GCYH | ≤ 0.25
KKCV | ≤ 0.25
LPWA | ≤ 0.25
SRNT | ≤ 0.25
WFLW | ≤ 0.25
YVAI | ≤ 0.25
KANL | ≤ 0.25

Variant | enrichment ratio
AGMR | ≤ 0.25
RLYV | ≤ 0.25
TTLM | 16.5
EMHP | ≤ 0.25
VDYR | ≤ 0.25
KMEY | ≤ 0.25
LMTL | ≤ 0.25
SGHL | 0.955
HRKI | ≤ 0.25
VAPQ | ≤ 0.25
FMIS | ≤ 0.25
SDEL | ≤ 0.25
DMCN | ≤ 0.25
HYMF | ≤ 0.25
DKLF | ≤ 0.25
HAWT | ≤ 0.25
HERT | ≤ 0.25
ELTY | ≤ 0.25
KLIP | ≤ 0.25
FQWH | ≤ 0.25
VNGW | ≤ 0.25
KHDD | ≤ 0.25
SWMQ | ≤ 0.25
ACTG | ≤ 0.25

Variant | enrichment ratio
YVST | ≤ 0.25
FYSD | ≤ 0.25
TFHR | ≤ 0.25
ADAQ | ≤ 0.25
RFFM | ≤ 0.25
YFII | ≤ 0.25
IGTV | ≤ 0.25
KAAC | ≤ 0.25
AGQV | ≤ 0.25
KHDP | ≤ 0.25
IAQQ | ≤ 0.25
TNHT | ≤ 0.25
CYYY | ≤ 0.25
WDYN | ≤ 0.25
LFHM | ≤ 0.25
FCYE | ≤ 0.25
GWFG | ≤ 0.25
EIHD | ≤ 0.25
PIIE | ≤ 0.25
AAPN | ≤ 0.25
IELH | ≤ 0.25
FGKM | ≤ 0.25
IMLC | ≤ 0.25
FHER | ≤ 0.25

Variant | enrichment ratio
DWYW | ≤ 0.25
QFMF | ≤ 0.25
FRAI | ≤ 0.25
DIET | ≤ 0.25
IEYV | ≤ 0.25
QIWR | 10.3
NVYM | ≤ 0.25
NSHY | ≤ 0.25
WDSW | ≤ 0.25
DWAW | ≤ 0.25
NKVD | 0.422
ITLH | ≤ 0.25
PRQL | ≤ 0.25
RIPK | ≤ 0.25
DRGL | ≤ 0.25
YGCW | ≤ 0.25
YDWA | ≤ 0.25
RWMI | ≤ 0.25
LCDH | ≤ 0.25
IDIW | ≤ 0.25
AWQS | ≤ 0.25
GWNN | ≤ 0.25
PNVS | ≤ 0.25
IACK | ≤ 0.25

Variant | enrichment ratio
WTLW | ≤ 0.25
VDTR | ≤ 0.25
LLHM | ≤ 0.25
FTAC | ≤ 0.25
MLST | ≤ 0.25
SLQD | ≤ 0.25
RSQT | ≤ 0.25
EQIL | ≤ 0.25
EDQD | ≤ 0.25
TQCD | 29.3
LQCG | ≤ 0.25
IHFW | ≤ 0.25
TQNT | 15.4
KMDI | ≤ 0.25
YCRY | ≤ 0.25
RYEM | ≤ 0.25
WNKI | ≤ 0.25
SGFY | 7.06
MGHC | ≤ 0.25
RKAM | ≤ 0.25
GGDR | ≤ 0.25
SWLW | ≤ 0.25
QVMP | ≤ 0.25
VMIY | ≤ 0.25

Variant | enrichment ratio
RLLD | ≤ 0.25
GCIQ | 1.14
LLCT | ≤ 0.25
PAGL | ≤ 0.25
QSGW | ≤ 0.25
PSLF | ≤ 0.25
NIDD | ≤ 0.25
QNPK | ≤ 0.25
PFLK | ≤ 0.25
DVYI | ≤ 0.25
ESQD | ≤ 0.25
GVII | 3.16
IKTH | ≤ 0.25
SPAW | ≤ 0.25
IEIR | ≤ 0.25
PPIL | ≤ 0.25
IEKR | ≤ 0.25
PMTP | ≤ 0.25
PLWL | ≤ 0.25
LKPP | ≤ 0.25
QLWP | ≤ 0.25
RRGN | ≤ 0.25
AQVT | 5.76
WGCD | ≤ 0.25

Variant | enrichment ratio
VIKW | ≤ 0.25
RTVM | ≤ 0.25
GDWI | ≤ 0.25
KSAT | ≤ 0.25
QQGE | ≤ 0.25
QLSQ | 0.294
KSRQ | ≤ 0.25
GQKP | ≤ 0.25
FMRY | ≤ 0.25
RPRC | ≤ 0.25
WRRV | ≤ 0.25
QNLK | ≤ 0.25
TWWH | ≤ 0.25
HKYV | ≤ 0.25
WPLF | ≤ 0.25
TCGS | 6.19
EAAR | ≤ 0.25
YGHL | ≤ 0.25
ISEI | ≤ 0.25
RIPF | ≤ 0.25
IFVY | ≤ 0.25
VDEL | ≤ 0.25
FCTA | ≤ 0.25
WMQI | ≤ 0.25

Variant | enrichment ratio
KIDA | ≤ 0.25
EKHF | ≤ 0.25
QRLD | ≤ 0.25
SNIE | ≤ 0.25
VVSV | ≤ 0.25
RQKL | ≤ 0.25
MLEH | ≤ 0.25
WVCR | ≤ 0.25
VPMI | ≤ 0.25
EYVF | ≤ 0.25
HQKP | ≤ 0.25
SCQQ | ≤ 0.25
QMMW | ≤ 0.25
DYFI | ≤ 0.25
HPID | ≤ 0.25
LREC | ≤ 0.25
YHSI | ≤ 0.25
CFIH | ≤ 0.25
